Some of the results follow. Cleavage of a single-stranded DNA pool by Rep nickase domains was read by sequencing for 1 h at 37 °C with 3 µM enzyme; only the middle of the 90-letter strands is printed. Numbers give uncut DNA relative to the enzyme-free pool, as log2; more negative means more cut, near 0 not cut, and no call is made. Reads are scaled to the total; where an enzyme cuts many sequences, the uncut ones exceed 0.
Experiments:
Test in all cases: uncleaved DNA left, log2 of reads against the no-enzyme library (log2 ratio); higher = less cleavage (more negative = more Rep cleavage of the k-mer); sequences stand for … in CTCGTCCG…ACCGGAGA
[1] = system: T1, Rep nickase domain of Muscovy duck circovirus
T1 sequence (Rep 1-111, printed without the tag): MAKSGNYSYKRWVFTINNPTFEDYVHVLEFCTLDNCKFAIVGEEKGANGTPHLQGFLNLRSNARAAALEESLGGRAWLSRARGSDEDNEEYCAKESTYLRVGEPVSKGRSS
Method: (§1)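 A pool of 90-nt single-stranded DNAs with seven random bases just before the constant AC of the nick site (name = the seven bases) was cut by 3 µM recombinant His6-SUMO-tagged Rep nickase domain (300 nM DNA, 50 mM HEPES pH 8.0, 50 mM NaCl, 1 mM MnCl2, 1 h, 37 °C, three replicates). Uncut DNA was amplified and sequenced.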

[2] = system: T2, Rep nickase domain of banana bunchy top virus
T2 sequence (Rep 1-94, printed without the tag): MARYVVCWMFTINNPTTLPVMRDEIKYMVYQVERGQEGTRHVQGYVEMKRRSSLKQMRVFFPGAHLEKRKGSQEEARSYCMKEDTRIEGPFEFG
Method: as §1

[3] = system: T3, Rep nickase domain of cabbage leaf curl virus
T3 sequence (Rep 1-116, printed without the tag): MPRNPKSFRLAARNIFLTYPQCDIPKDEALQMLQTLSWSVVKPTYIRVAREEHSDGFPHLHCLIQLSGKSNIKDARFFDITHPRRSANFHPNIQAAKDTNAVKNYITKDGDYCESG
Method: as §1

[4] = system: T4, Rep nickase domain of chickpea chlorotic dwarf virus
T4 sequence (Rep 1-124, printed without the tag): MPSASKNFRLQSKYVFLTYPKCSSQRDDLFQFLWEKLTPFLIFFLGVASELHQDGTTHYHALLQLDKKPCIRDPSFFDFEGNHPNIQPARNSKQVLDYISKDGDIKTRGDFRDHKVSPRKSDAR
Method: as §1

[5] = system: T5, Rep nickase domain of faba bean necrotic yellows virus
T5 sequence (Rep 1-98, printed without the tag): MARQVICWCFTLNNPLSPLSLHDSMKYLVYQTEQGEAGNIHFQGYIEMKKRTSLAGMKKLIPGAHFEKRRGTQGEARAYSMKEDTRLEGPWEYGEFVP
Method: as §1

[6] = system: T6, Rep nickase domain of maize striate mosaic virus
T6 sequence (Rep 1-117, printed without the tag): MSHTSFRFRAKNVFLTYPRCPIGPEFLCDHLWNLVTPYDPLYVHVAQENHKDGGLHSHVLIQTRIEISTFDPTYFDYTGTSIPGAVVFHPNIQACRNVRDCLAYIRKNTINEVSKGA
Method: as §1

[7] = system: T7, Rep nickase domain of porcine circovirus 2
T7 sequence (Rep 2-116, printed without the tag): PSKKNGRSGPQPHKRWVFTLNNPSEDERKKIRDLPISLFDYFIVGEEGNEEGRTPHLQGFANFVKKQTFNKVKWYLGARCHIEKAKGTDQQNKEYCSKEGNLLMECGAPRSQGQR
Method: as §1

[8] = system: T8, Rep nickase domain of tomato golden mosaic virus
T8 sequence (Rep 1-124, printed without the tag): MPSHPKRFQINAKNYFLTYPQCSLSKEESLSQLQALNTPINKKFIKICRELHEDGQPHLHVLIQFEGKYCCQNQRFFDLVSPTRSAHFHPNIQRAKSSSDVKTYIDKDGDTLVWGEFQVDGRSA
Method: as §1

[9] = system: T9, Rep nickase domain of tomato yellow leaf curl virus
T9 sequence (Rep 1-136, printed without the tag): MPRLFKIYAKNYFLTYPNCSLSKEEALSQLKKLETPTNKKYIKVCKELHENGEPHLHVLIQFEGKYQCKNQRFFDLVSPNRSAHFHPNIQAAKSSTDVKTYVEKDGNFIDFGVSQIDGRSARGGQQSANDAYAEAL
Method: as §1

[10] = system: T10, Rep nickase domain of wheat dwarf virus
T10 sequence (Rep 1-137, printed without the tag): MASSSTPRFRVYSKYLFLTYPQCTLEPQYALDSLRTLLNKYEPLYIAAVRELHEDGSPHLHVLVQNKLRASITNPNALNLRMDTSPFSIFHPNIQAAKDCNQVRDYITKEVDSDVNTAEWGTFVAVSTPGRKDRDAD
Method: as §1

| Sequence | uncleaved DNA left (log2) [1] | uncleaved DNA left (log2) [2] | uncleaved DNA left (log2) [3] | uncleaved DNA left (log2) [4] | uncleaved DNA left (log2) [5] | uncleaved DNA left (log2) [6] | uncleaved DNA left (log2) [7] | uncleaved DNA left (log2) [8] | uncleaved DNA left (log2) [9] | uncleaved DNA left (log2) [10] |
| --- | --- | --- | --- | --- | --- | --- | --- | --- | --- | --- |
| ACCTCCG | -0.0357 | -0.0641 | -0.799 | 0.155 | -0.0899 | -0.773 | 0.0663 | -0.138 | -0.0405 | -0.0967 |
| TGGTACA | 0.0389 | 0.0718 | 0.137 | 0.323 | -0.0934 | 1.72 | -0.149 | -0.0548 | 0.0249 | -0.0811 |
| ACACACA | -0.181 | -0.0455 | -0.302 | -1.45 | -0.0567 | -0.647 | -0.0272 | -0.0525 | -0.0984 | -0.121 |
| GTATGCG | 0.00187 | 0.116 | -0.324 | 1.08 | -0.0183 | 0.382 | 0.186 | 0.000407 | -0.122 | -0.0449 |
| AGTCGAC | -0.0294 | 0.0133 | 0.108 | 0.65 | 0.212 | 1.29 | 0.258 | 0.126 | 0.106 | 0.154 |
| TTGAGAT | -0.0174 | -0.0514 | 0.083 | 0.895 | -0.0764 | 0.792 | 0.168 | -0.011 | -0.0596 | 0.123 |
| TGGTTCG | -0.172 | -0.187 | -0.961 | -0.121 | -0.16 | -0.979 | -0.0722 | -0.224 | -0.147 | -0.271 |
| TTGAGTG | 0.266 | 0.0958 | -0.165 | -0.231 | 0.23 | -0.731 | 0.31 | 0.125 | 0.237 | 0.0753 |
| ATCAGGC | 0.0606 | 0.0639 | -0.0872 | -0.0126 | 0.027 | -0.872 | 0.097 | 0.0641 | -0.0133 | -0.0909 |
| ACGGCGG | -0.214 | -0.177 | -0.64 | -0.385 | -0.147 | -0.83 | -0.0264 | -0.024 | -0.139 | -0.221 |
| GCTCCTG | 0.0731 | 0.173 | 0.0634 | 0.287 | -0.0516 | 0.288 | 0.0825 | 0.00987 | 0.0618 | 0.0994 |
| TGCAACA | 0.00906 | -0.0427 | 0.255 | -0.525 | 0.0243 | 0.835 | -0.141 | -0.000203 | -0.0275 | 0.035 |
| GAAAGAA | 0.0485 | 0.137 | 0.27 | 0.301 | -0.066 | 0.343 | 0.141 | 0.00536 | 0.00601 | 0.158 |
| GAGTATC | -0.126 | -0.0271 | 0.268 | 0.587 | -0.565 | 1.02 | -2.47 | -0.00928 | 0.0979 | 0.12 |
| CAGTGGG | 0.0226 | -0.089 | -0.736 | -0.378 | 0.058 | -0.94 | 0.134 | -0.0368 | 0.218 | -0.0983 |
| GTACCGG | -0.0448 | -0.000527 | 0.529 | 1.44 | 0.0477 | 1.95 | 0.0955 | 0.0536 | -0.0585 | 0.0482 |
| CTCCACC | -0.0745 | -0.0538 | -0.0426 | -0.526 | -0.073 | -0.51 | -0.207 | -0.0935 | -0.052 | -0.126 |
| CATGTTA | -0.224 | -0.082 | -0.464 | -1.91 | -0.00459 | -1.03 | -0.364 | -0.122 | -0.0528 | -0.124 |
| ATCCAAC | -0.0508 | 0.0092 | -0.174 | -1.26 | 0.0262 | -0.829 | 0.0474 | 0.0193 | -0.0533 | 0.0129 |
| GAAAGGC | 0.0415 | 0.0634 | 0.19 | 0.552 | 0.0129 | 0.00315 | 0.206 | 0.0383 | 0.0496 | 0.0963 |
| CATTGTC | -0.0267 | -0.209 | -0.876 | -0.203 | 0.0353 | -1.08 | -0.02 | -0.182 | 0.116 | -0.0937 |
| TCTTACT | -3.54 | -0.739 | -1.11 | -2.97 | -0.0613 | -0.436 | -3.9 | -0.241 | -0.0642 | -0.786 |
| CGTGCCT | -0.103 | -0.0675 | -0.154 | -0.748 | -0.146 | -0.188 | -0.288 | -0.09 | -0.032 | -0.108 |
| CAAACCC | -0.163 | -0.109 | -0.26 | -1.12 | -0.0589 | -0.749 | -0.623 | -0.144 | -0.0805 | -0.0156 |
| TATCACG | 0.0718 | 0.0657 | -0.714 | -0.821 | 0.165 | -1.13 | 0.187 | 0.0739 | 0.0116 | -0.0175 |
| CAAGTGT | 0.111 | -0.0112 | -0.38 | -0.925 | 0.0409 | -0.592 | -0.0152 | -0.0699 | -0.0619 | -0.0875 |
| CGGAGAG | 0.0388 | -0.0955 | -0.211 | 0.0271 | -0.072 | -0.455 | -0.0225 | 0.0195 | -0.136 | -0.0461 |
| CTACGTG | 0.0346 | -0.116 | -0.72 | -1.33 | 0.0208 | -1.27 | 0.106 | -0.0999 | 0.00208 | -0.135 |
| CAAAGTC | 0.101 | 0.0413 | -0.803 | -1.02 | 0.0126 | -1.06 | 0.0447 | -0.0352 | -0.0229 | -0.169 |
| TTTCCAG | -0.0664 | 0.0204 | -0.597 | -0.842 | 0.0842 | -1.03 | -0.157 | -0.0508 | 0.084 | 0.0345 |

Reference: the supplement of paper PMC7826260
